In PubChem BioAssay AID588855 (National Center for Advancing Translational Sciences (NCATS), 2011):
Hit rate of the full screen: of about 410,000 compounds, about 5,000 (1.2%) were called active. The inconclusive results got no clear call from the source; some entries with a clear call stand among them for comparison. Calls come from the whole dose curve; as a rule, active = well fitted inhibition curve with a large enough effect; inconclusive = small, poorly fitted or top-dose-only effect; inactive = no such curve, though single readings can be large or run the other way. Potencies of inconclusive entries are doubtful fits and often do not repeat.

assay: qHTS for Inhibitors of TGF-b; conditions: HepG2 CAGA-GFP TGF-b/SMAD3 reporter, GFP fluorescence, 18 h, TGF-beta stimulated, 500 pg/mL final; series mostly up to 46.1 µM; note: nearly all actives have a fitted effect of over 65% in size
Method in brief: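 First, reporter cells (HEPG2 CAGA-GFP) rested 2 h at 37 degrees C. Next, compounds were pinned in and TGF-beta added to 500 pg/mL final. After 18 h, GFP was imaged per cell and summed per well.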
Potency is the fitted concentration of half-maximal effect; tags give direction and shape of the fitted curve.

With CC(C)(C)c1ccc(C(O)c2ncc(-c3ccccc3F)[nH]2)cc1 (stereo not drawn) as the compound, how does the Potency read?
Its Potency is inconclusive: 35.5 µM [inhibitor, single point].

Which Potency does the source give for CC(C)n1cc(NC(=O)c2cc(-c3ccccc3)on2)cn1 here?
The Potency was inconclusive: 3.16 µM [inhibitor, single point].

With O=C(Nc1nnc(SCC(=O)N2CCCC2)s1)C1CC(=O)N(c2ccccc2)C1 (stereo not drawn) as the compound, how does the Potency read?
The Potency was “inactive”.

Which Potency does the source give for NC(=O)COc1ccc(C(=O)/C=C2/C(=O)Nc3ccccc32)cc1 here?
Its Potency is inconclusive: 35.5 µM [inhibitor, single point].

With O=C(c1cccc(Cl)c1)N1CCC2CC1c1cc(-c3ccc(F)cc3)ccc12 (stereo not drawn) as the compound, how does the Potency read?
The Potency was inconclusive: 17.8 µM [inhibitor, single point].

For CCN(CC)c1ccc(S(=O)(=O)N2CCOCC2)cc1NC(=O)COC(=O)/C=C/c1ccc(C)o1, which Potency is on record?
Its Potency is inconclusive: 35.5 µM [inhibitor, single point].

Which Potency does the source give for Cc1ccc([C@H]2C[C@@H](n3cc(C4CC4)nn3)[C@H](O)CN2CC2CCCCC2)cc1 here?
The Potency was inconclusive: 35.5 µM [inhibitor, single point].

For COc1ccc(C(=O)/C=C/C(=O)N(Cc2ccc3c(c2)OCO3)C(C(=O)NC2CCCCC2)c2ccncc2)c(O)c1 (stereo not drawn), which Potency is on record?
Its Potency is inconclusive: 35.5 µM [inhibitor, partial curve, poor fit].

For COc1ccc(NCc2nc3ccccc3n2CCOc2ccc(C)cc2)cc1, which Potency is on record?
The Potency was active: 14.1 µM.

For Cc1ccc(NC(=O)c2sc(N)nc2-c2ccccc2)cc1C, which Potency is on record?
The Potency was inconclusive: 35.5 µM [inhibitor, single point].

Which Potency does the source give for O=c1cc(N2CCCCC2)c(-c2ccccc2)nn1Cc1ccc(Cl)cc1Cl here?
The Potency was inconclusive: 10 µM [inhibitor, partial curve, poor fit].

Which Potency does the source give for CCCN(CCC)CCCn1c(=O)[nH]c2ccccc21 here?
The Potency was “inactive”.

With CCOc1ccc(S(=O)(=O)Nc2ccccc2C(=O)N2CCCC2)cc1 as the compound, how does the Potency read?
The Potency was inconclusive: 3.98 µM [inhibitor, single point].

With CC(=O)Nc1cc(-c2ccc(N3CCN(C)CC3)cc2)cn2c(-c3cccc(C(C)=O)c3)cnc12 as the compound, how does the Potency read?
Its Potency is inconclusive: 31.6 µM [inhibitor, single point].

With CC1CC2C3CCC4=CC(=O)C=CC4(C)C3(F)C(O)CC2(C)C1(O)C(=O)CO (stereo not drawn) as the compound, how does the Potency read?
Its Potency is “inactive”.

Which Potency does the source give for O=C(Nc1cccc(-c2cccc(F)c2)c1)C1CCN(Cc2ccco2)CC1 here?
Its Potency is inconclusive: 11.2 µM [inhibitor, single point].

For CCOc1ccc(S(=O)(=O)c2cn(Cc3ccc(C)cc3)c3ccc(OC)cc3c2=O)cc1, which Potency is on record?
The Potency was “inactive”.

Which Potency does the source give for Cc1ccc(Cl)cc1N1CCN(C(=S)NCCc2ccccc2)CC1 here?
The Potency was inconclusive: 35.5 µM [inhibitor, single point].

Which Potency does the source give for CCOC(=O)C1=C(C)Nc2ccccc2N/C1=N\S(=O)(=O)c1ccccc1 here?
Its Potency is inconclusive: 35.5 µM [inhibitor, single point].

Which Potency does the source give for CCOc1ccccc1N(CC(=O)NCCSc1ccccn1)S(=O)(=O)c1ccc(C)cc1 here?
Its Potency is inconclusive: 25.1 µM [inhibitor, single point].

Which Potency does the source give for Cc1ccc(-c2cnc(NCc3ccc(C(C)C)cc3)n2C)cc1 here?
The Potency was inconclusive: 20 µM [inhibitor, partial curve, poor fit].

For CCC(CC)C(=O)N(C)c1c(C)nc2c(OCCOc3ccccc3)cccn12, which Potency is on record?
The Potency was inconclusive: 10 µM [inhibitor, partial curve].

Which Potency does the source give for Cc1ccccc1NC(=O)c1ccc2nc(N3CCOCC3)sc2c1 here?
The Potency was “inactive”.

For Cc1nc2c(C(=O)N3CCN(C)CC3)cnn2c(C)c1Cc1ccc(Cl)cc1, which Potency is on record?
Its Potency is “inactive”.

With Cc1ccc(C)c(S(=O)(=O)N2CCN(C(=O)Cc3c(F)cccc3Cl)CC2)c1 as the compound, how does the Potency read?
Its Potency is inconclusive: 35.5 µM [inhibitor, single point].

With COc1ccc(-c2sc(Nc3ccccc3)n[n+]2-c2ccc(F)cc2)c(C)c1C as the compound, how does the Potency read?
The Potency was inconclusive: 22.4 µM [inhibitor, single point].

With COC(=O)c1cc(NC(=O)c2cnc(SC)nc2-c2ccccc2)cc(C(=O)OC)c1 as the compound, how does the Potency read?
The Potency was inconclusive: 35.5 µM [inhibitor, single point].

For Cc1ccccc1CSc1nnc(-c2ccco2)n1Cc1ccco1, which Potency is on record?
Its Potency is inconclusive: 35.5 µM [inhibitor, single point].

For COc1ccc(S(=O)(=O)N(C(=O)c2ccco2)c2cc3sc(=O)oc3c3ccccc23)cc1, which Potency is on record?
The Potency was inconclusive: 22.4 µM [inhibitor, single point].

With O=C(OCCC12CC3CC(CC(C3)C1)C2)c1ccc(NCc2cc(O)ccc2O)cc1 as the compound, how does the Potency read?
Its Potency is inconclusive: 35.5 µM [inhibitor, partial curve, poor fit].

With Oc1ccccc1C1C=C(c2ccc3c(c2)OCO3)NC(c2cccc(Cl)c2)N1 (stereo not drawn) as the compound, how does the Potency read?
Its Potency is inconclusive: 35.5 µM [inhibitor, single point].

For CCN1CCN(C(=O)c2ccccc2N(Cc2ccccc2)S(=O)(=O)c2ccc(C)cc2)CC1, which Potency is on record?
Its Potency is inconclusive: 6.31 µM [inhibitor, partial curve, poor fit].

Which Potency does the source give for COc1ccc(-c2nc(CSCC(=O)NCc3ccco3)c(C)o2)cc1 here?
Its Potency is “inactive”.

For CCC(C)(C)C1CCC2(CC1)NC(=O)N(CC(=O)NCCc1ccc(OC)c(OC)c1)C2=O (stereo not drawn), which Potency is on record?
The Potency was inconclusive: 35.5 µM [inhibitor, partial curve, poor fit].

Which Potency does the source give for COc1ccc(CN(C)c2ncnc3sccc23)c(OC)c1OC here?
Its Potency is inconclusive: 8.91 µM [inhibitor, partial curve, poor fit].

For Cc1ccc(NCc2nc3ccccc3n2CCOc2ccccc2C)cc1, which Potency is on record?
The Potency was inconclusive: 35.5 µM [inhibitor, single point].

With O=C1CN(C(=O)COC(=O)c2ccc(Cl)cc2)c2ccccc2N1 as the compound, how does the Potency read?
The Potency was inconclusive: 1.78 µM [inhibitor, partial curve, poor fit].

For O=C(CCc1nc2ccccc2c(=O)[nH]1)NNC(=O)c1ccc(Cl)cc1, which Potency is on record?
Its Potency is inconclusive: 6.31 µM [inhibitor, single point].

Which Potency does the source give for Cc1cccc(NS(=O)(=O)c2cc(C(=O)N3CCc4ccccc4C3)ccc2Cl)c1C here?
The Potency was inconclusive: 25.1 µM [inhibitor, single point].

Which Potency does the source give for O=C(CCCCCn1c(=O)c2sccc2n(CC(=O)Nc2cc(C(F)(F)F)ccc2Cl)c1=O)NCc1ccccc1Cl here?
The Potency was inconclusive: 3.98 µM [inhibitor, partial curve, poor fit].

Which Potency does the source give for CCc1nc2ccc(C(=O)N3CCN(C(=O)c4ccco4)CC3)cn2c1N(CCC(C)C)CCN(C)C here?
The Potency was “inactive”.

With CC(=O)N1CCN(CC(=O)Nc2ccccc2Sc2ccc(Cl)cc2)CC1 as the compound, how does the Potency read?
The Potency was inconclusive: 20 µM [inhibitor, single point].

Which Potency does the source give for COc1cc(C(=O)N/N=C/c2sc(=O)n(-c3ccccc3)c2Cl)cc(OC)c1OC here?
Its Potency is inconclusive: 0.1 µM [inhibitor, full curve, poor fit].

For CC(C)CC(NS(=O)(=O)OCC(Cl)(Cl)Cl)c1ccccc1 (stereo not drawn), which Potency is on record?
The Potency was inconclusive: 22.4 µM [inhibitor, partial curve, poor fit].

For O=C(Nc1cccc(Cl)c1)c1cc2c(=O)n3ccccc3nc2s1, which Potency is on record?
The Potency was “inactive”.

With COc1cc(CN2CCN(Cc3ccc([N+](=O)[O-])cc3)CC2)c([N+](=O)[O-])cc1OC as the compound, how does the Potency read?
The Potency was inconclusive: 10 µM [inhibitor, partial curve, poor fit].

Which Potency does the source give for CC(C)(C)c1ccc(OCC(=O)NCC2(N3CCOCC3)CCCCC2)cc1 here?
The Potency was inconclusive: 28.2 µM [inhibitor, single point].

With CC(C)(C)c1ccc(/C=C2\SC(=O)N(CCNC(=O)c3cccc(S(=O)(=O)N4CCOCC4)c3)C2=O)cc1 as the compound, how does the Potency read?
Its Potency is active: 12.6 µM.

For CCOC(=O)C(C(=O)c1ccccc1)C1CC(C)NC(=S)N1 (stereo not drawn), which Potency is on record?
The Potency was inconclusive: 2.51 µM [inhibitor, partial curve, poor fit].

With COc1ccccc1-c1noc(CCCC(=O)Nc2cccc(C(F)(F)F)c2)n1 as the compound, how does the Potency read?
Its Potency is active: 12.6 µM.

For Cc1ccc(NC(=O)CN(C)C(=O)CCSc2ccc(F)cc2)cc1, which Potency is on record?
The Potency was inconclusive: 35.5 µM [inhibitor, single point].

Which Potency does the source give for Cc1ccc(C(=O)c2c3ccc(N)cc3nn2CCC(N)=O)cc1 here?
Its Potency is inconclusive: 5.62 µM [inhibitor, single point].

Which Potency does the source give for O=C(Nc1ccc(Oc2ccc3ccccc3c2)cc1)c1ccco1 here?
The Potency was “inactive”.

With CN(C)c1ccc(/C=N/NC(=O)CNC(=O)/C=C/c2ccccc2)cc1 as the compound, how does the Potency read?
Its Potency is inconclusive: 14.1 µM [inhibitor, partial curve, poor fit].

With Cc1ccc(NC(=O)Nc2ccccc2CC[N+](=O)[O-])cc1 as the compound, how does the Potency read?
Its Potency is “inactive”.

For S=C(NCc1ccccc1)Nc1cccc(Cl)c1, which Potency is on record?
Its Potency is inconclusive: 35.5 µM [inhibitor, partial curve, poor fit].

With Cc1cc(C)c(C2C(C#N)=C(N)Oc3n[nH]c(C)c32)cc1CN1CCCC1 (stereo not drawn) as the compound, how does the Potency read?
The Potency was “inactive”.

With O=C(Nc1nnc(-c2ccco2)o1)c1ccc([N+](=O)[O-])s1 as the compound, how does the Potency read?
The Potency was inconclusive: 22.4 µM [inhibitor, single point].

Which Potency does the source give for Oc1ccccc1C1C=C(c2ccc3c(c2)OCO3)NC(c2c(F)cccc2Cl)N1 (stereo not drawn) here?
Its Potency is inconclusive: 25.1 µM [inhibitor, single point].

Which Potency does the source give for CCOc1ccccc1CNc1ccc(O)cc1 here?
Its Potency is active: 15.8 µM.

Which Potency does the source give for CCO[C@@H]1OC(C(=O)NCc2nc3ccccc3[nH]2)=C[C@H](c2ccc(C(F)(F)F)cc2)[C@H]1CCCO here?
The Potency was inconclusive: 0.112 µM [inhibitor, full curve, poor fit].

With COC(=O)c1cc(S(=O)(=O)NCC2CCN(CCc3cccs3)CC2)cn1C as the compound, how does the Potency read?
The Potency was “inactive”.

Which Potency does the source give for O=C(N/N=C/c1ccco1)c1cc(-c2ccc(Cl)cc2)n[nH]1 here?
The Potency was “inactive”.
